Results from the supplement of paper PMC12217912.
Some of the results follow. Sequences were assembled here from the parent chain. Values near 0.05 are background.

B1: TEV protease; numbered along this chain (parent)
chain: MGESLFKGPRDYNPISSSICHLTNESDGHTTSLYGIGFGPFIITNKHLFRRNNGTLVVQSLHGVFKVKDTTTLQQHLVDGRDMIIIRMPKDFPPFPQKLKFREPQREERICLVTTNFQTKSMSSMVSDTSCTFPSGDGIFWKHWIQTKDGQCGSPLVSTRDGFIVGIHSASNFTNTNNYFTSVPKNFMELLTNQEAQQWVSGWRLNADSVLWGGHKVFMVKPEEPFQPVKEATQL

Variants of: B1
Assay: raw area under fraction-flipped curve 0-4 h after induction (AUC4h, not background-subtracted), DNA-recorder readout of cleavage of the substrate (dimensionless); higher = more cleavage of the substrate by the protease variant
Details: temperature: 34 °C; time window: 0-4 h after rhamnose induction
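Also: Bxb1 expression induced with 0.2% (w/v) L-rhamnose at OD600 near 0.5, cultures sampled hourly, flipped fraction per protease–substrate barcode pair counted by paired-end Illumina sequencing.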

Row | Variant | area with substrate ENCYFQS | area with substrate ENDYFQS | area with substrate ENFYFQS | area with substrate ENGYFQS | area with substrate ENIYFQS | area with substrate ENKYFQS | area with substrate ENQYFQS | area with substrate ENSYFQS | area with substrate ENTYFQS | area with substrate ENVYFQS | area with substrate ENEYFQS | area with substrate ENHYFQS | area with substrate ENMYFQS | area with substrate ENNYFQS | area with substrate ENRYFQS | area with substrate ENWYFQS | area with substrate ENYYFQS | area with substrate ENPYFQS
1 | MGESLFKGPRDYNPISSSICHLTNESDGHTTSLYGIGFGPFIITNKHLFRRNNGTLVVQSLHGVFKVKDTTTLQQHLVDGRDMIIIRMPKDFPPFPQKLKFREPQREERICLVTTGFQTKSMSSMVSDTSCTFPSGDGIFWKHWIQTKDGQCGSPLVSTRDGFIVGIHSASNFTNTNNYFTSVPKNFMELLTNQEAQQWVSGWRLNADSVLWGGHKVFMVKPEEPFQPVKEATQL [N116G] | 0.079 | 0.0588 | 0.0646 | 0.0691 | 0.158 | 0.0521 | 0.0613 | 0.0562 | 0.0745 | 0.0803 | – | – | – | – | – | – | – | –
2 | MGESLFKGPRDYNPISSSICHLTNESDGHTTSLYGIGFGPFIITNKHLFRRNNGTLVVQSLHGVFKVKDTTTLQQHLVDGRDMIIIRMPKDFPPFPQKLKFREPQREERICLVTTNFQTKSMSSMVSDTSCTFPSGDGKFWKHWIQTKDGQCGSPLVSTRDGFIVGIHSASNFTNTNNYFTSVPKNFMELLTNQEAQQWVSGWRLNADSVLWGGHKVFMVKPEEPFQPVKEATQL [I139K] | 0.051 | 0.0362 | – | 0.0634 | 0.121 | – | – | 0.0585 | – | – | 0.0513 | 0.065 | 0.0644 | 0.0586 | 0.0561 | – | – | –
3 | MGESLFKGPRDYNPISSSICHLTNESDGHTTSLYGIGFGPFIITNKHLFRRNNGTLVVQSLHGVFKVKDTTTLQQHLVDGRDMIIIRMPKDFPPFPQKLKFREPQREERICLVTTNFQTKSMSSMVSDASCTFPSGDGIFWKHWIQTKDGQCGSPLVSTRDGFIVGIHSASNFTNTNNYFTSVPKNFMELLTNQEAQQWVSGWRLNADSVLWGGHKVFMVKPEEPFQPVKEATQL [T129A] | 0.0228 | 0.0404 | 0.0588 | 0.06 | 0.0876 | – | – | 0.0814 | 0.0827 | – | 0.0627 | – | – | – | 0.0679 | – | – | –
4 | MGESLFKGPRDYNPISSSICHLTNESDGHTTSLYGIGFGPFIITNKHLFRRNNGTLVVQSLHGVFKVKDTTTLQQHLVDGRDMIIIRMPKDFPPFPQKLKFREPQREERICLVTTNYQTKSMSSMVSDTSCTFPSGDGIFWKHWIQTKDGQCGSPLVSTRDGFIVGIHSASNFTNTNNYFTSVPKNFMELLTNQEAQQWVSGWRLNADSVLWGGHKVFMVKPEEPFQPVKEATQL [F117Y] | 0.0693 | 0.0605 | 0.0629 | 0.0458 | – | – | – | 0.0516 | 0.0563 | – | 0.0475 | – | 0.0454 | 0.0574 | 0.0137 | 0.0491 | – | –
5 | MGESLFKGPRDYNPISSSICHLTNESDGHTTSLYGIGFGPFIITNKHLFRRNNGTLVVQSLHGVFKVKDTTTLQQHLVDGRDMIIIRMPKDFPPFPQKLKPREPQREERICLVTTNFQTKSMSSMVSDTSCTFPSGDGIFWKHWIQTKDGQCGSPLVSTRDGFIVGIHSASNFTNTNNYFTSVPKNFMELLTNQEAQQWVSGWRLNADSVLWGGHKVFMVKPEEPFQPVKEATQL [F101P] | 0.0533 | 0.0408 | 0.0507 | 0.0432 | 0.0607 | – | 0.0359 | 0.0404 | 0.053 | 0.0487 | 0.0363 | 0.0447 | – | – | – | – | 0.0412 | –
6 | MGESLFKGPRDYNPISSSICHLTNESDGHTTSLYGIGFGPFIITNKHLFRRNNGTLVVQSLHGVFKVKDTTTLQQHLVDGRDMIIIRMPKDFPPFPQKLKMREPQREERICLVTTNFQTKSMSSMVSDTSCTFPSGDGIFWKHWIQTKDGQCGSPLVSTRDGFIVGIHSASNFTNTNNYFTSVPKNFMELLTNQEAQQWVSGWRLNADSVLWGGHKVFMVKPEEPFQPVKEATQL [F101M] | 0.0607 | 0.0586 | 0.0388 | – | 0.0878 | 0.0435 | 0.0597 | 0.0714 | 0.0766 | 0.0573 | 0.0569 | – | 0.0678 | 0.0523 | 0.0505 | – | – | –
7 | MGESLFKGPRDYNPISSSICHLTNESDGHTTSLYGIGFGPFIITNKHLFRRNNGTLVVQSLHGVFKVKDTTTLQQHLVDGRDMIIIRMPKDFPPFPQKLKFREPQREERICLVTTNFQTKSMSSMVSDTSCTFPSGGGIFWKHWIQTKDGQCGSPLVSTRDGFIVGIHSASNFTNTNNYFTSVPKNFMELLTNQEAQQWVSGWRLNADSVLWGGHKVFMVKPEEPFQPVKEATQL [D137G] | 0.063 | 0.0702 | 0.0645 | 0.0755 | 0.0868 | 0.0591 | 0.0546 | 0.0661 | 0.0515 | 0.0825 | 0.0553 | 0.0634 | 0.0533 | 0.0775 | 0.0456 | 0.0578 | 0.058 | 0.0612
8 | MGESLFKGPRDYNPISSSICHLTNESDGHTTSLYGIGFGPFIITNKHLFRRNNGTLVVQSLHGVFKVKDTTTLQQHLVDGRDMIIIRMPKDFPPFPQKLKFREPQREERICLVTTNFQTKSMSSMVSDTSCTFPSIDGIFWKHWIQTKDGQCGSPLVSTRDGFIVGIHSASNFTNTNNYFTSVPKNFMELLTNQEAQQWVSGWRLNADSVLWGGHKVFMVKPEEPFQPVKEATQL [G136I] | 0.0745 | 0.0555 | – | – | – | 0.0662 | 0.062 | 0.0617 | – | – | 0.063 | 0.0673 | – | – | – | – | – | –
9 | MGESLFKGPRDYNPISSSICHLTNESDGHTTSLYGIGFGPFIITNKHLFRRNNGTLVVQSLHGVFKVKDTTTLQQHLVDGRDMIIIRMPKDFPPFPQKLKFREPQREERICLVTTNFQTKSMSSMVRDTSCTFPSGDGIFWKHWIQTKDGQCGSPLVSTRDGFIVGIHSASNFTNTNNYFTSVPKNFMELLTNQEAQQWVSGWRLNADSVLWGGHKVFMVKPEEPFQPVKEATQL [S127R] | 0.0374 | – | 0.0689 | – | 0.107 | 0.0165 | 0.061 | 0.07 | 0.0798 | 0.0963 | 0.0922 | 0.0579 | – | – | 0.0528 | – | – | 0.0602
